According to PubChem BioAssay AID488969 (Vanderbilt High Throughput Screening Facility, 2010):
In all, about 110,000 compounds were measured (“z-score”: median about -0.1, highest 2% from about 2 on). The list shows a part of the results. Activity calls are given as the source filed them.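 How the source made its calls: active means z-score in the third read window above 3 or below -3; inactive means the rest.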

Target: Metabotropic glutamate receptor 8 (Rattus norvegicus) (UniProt P70579)
Experiment: rat mGluR8 modulators via GIRK flux, primary screen, cell-based, thallium flux, HTS (AID 488969)
Settings: HEK293 rat mGluR8, GIRK (G protein-gated inwardly rectifying potassium channel) thallium flux, FluoZin2; at 10 µM; stronger effect = higher value; submaximal glutamate (EC20) added with thallium

Chain of UniProt P70579 (P70579 whole entry, looked up): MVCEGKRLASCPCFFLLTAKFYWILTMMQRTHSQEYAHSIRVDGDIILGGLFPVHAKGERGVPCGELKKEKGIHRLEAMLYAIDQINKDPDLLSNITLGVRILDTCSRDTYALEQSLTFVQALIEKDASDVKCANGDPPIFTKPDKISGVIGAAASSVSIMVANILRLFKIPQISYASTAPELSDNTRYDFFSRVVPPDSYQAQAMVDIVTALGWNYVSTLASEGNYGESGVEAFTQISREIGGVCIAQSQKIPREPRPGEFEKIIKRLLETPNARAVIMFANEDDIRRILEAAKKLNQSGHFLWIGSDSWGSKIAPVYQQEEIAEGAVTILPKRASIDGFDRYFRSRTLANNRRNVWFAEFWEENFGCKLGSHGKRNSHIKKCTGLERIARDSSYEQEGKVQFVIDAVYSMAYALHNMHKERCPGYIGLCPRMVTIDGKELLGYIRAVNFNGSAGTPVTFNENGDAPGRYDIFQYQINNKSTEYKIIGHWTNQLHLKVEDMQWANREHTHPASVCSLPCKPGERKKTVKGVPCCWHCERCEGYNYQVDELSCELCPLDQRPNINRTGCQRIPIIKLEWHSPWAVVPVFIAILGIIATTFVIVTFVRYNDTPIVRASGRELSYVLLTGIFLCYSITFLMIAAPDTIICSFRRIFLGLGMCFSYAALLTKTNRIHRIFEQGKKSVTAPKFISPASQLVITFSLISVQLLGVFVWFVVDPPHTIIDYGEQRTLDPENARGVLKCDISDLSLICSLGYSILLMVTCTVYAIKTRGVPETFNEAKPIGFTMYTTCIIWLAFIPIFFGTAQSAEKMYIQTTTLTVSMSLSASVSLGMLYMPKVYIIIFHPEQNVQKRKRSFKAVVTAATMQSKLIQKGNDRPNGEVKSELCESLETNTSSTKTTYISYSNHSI

SMILES	z-score
CCC1=NN(C(=O)Cc2ccc(OC)cc2)C(O)(C(F)(F)F)C1 (configuration not stated)	-0.157
Cc1nc(NC(N)=S)sc1C(=O)Nc1ccccc1	0.266
O=C(c1ccccc1)N1CCCc2ccccc21	active: 3.33
CCOC(=O)c1c(C)[nH]c(C(=O)OCC(=O)Nc2cc(C)ccc2OC)c1C	0.0146
CCOc1ccc(CCNS(=O)(=O)c2c(C)n[nH]c2C)cc1OCC	-0.0316
O=C(OCc1ccccc1)c1cccc(-c2nnc(-c3ccccc3)o2)c1	-0.151
CC(=O)Nc1ccc(S(=O)(=O)Oc2ccc3c(c2)C(C)=CC(C)(C)N3)cc1	-0.232
NS(=O)(=O)c1ccc(CCNC(=O)c2ccccc2[N+](=O)[O-])cc1	-0.167
CCN1/C(=C/c2ccc3cc(C)ccc3[n+]2CC)Sc2ccccc21	0.652
COCC(=O)OCC(=O)Nc1cc(C)c(C)cc1[N+](=O)[O-]	-0.0881
Cc1ccc(CNC(=O)c2ccc(NS(=O)(=O)c3c(C)noc3C)cc2)cc1	-0.649
Cc1ccc(Cl)cc1NC(=O)Cn1cc2c(n1)CCCC2	-0.558
CC(=O)c1cc(NC(=O)c2ccc(C)cc2)c(=O)oc1/C=C/N(C)C	-0.203
CC(NC(=O)CC12CC3CC(CC(C3)C1)C2)C(=O)O (configuration not stated)	-0.136
c1ccc2c(c1)[nH]c1c(NCC3CCCO3)ncnc12 (configuration not stated)	-0.111
COc1cnn(C(C)(C)C)c(=O)c1Cl	-0.0663
O=C(CN(c1ccc2c(c1)OCCO2)S(=O)(=O)c1ccccc1)NCC1CCCO1 (configuration not stated)	0.697
Cc1ccc(Cl)cc1NC(=O)c1ccc(NC(=O)CCC(=O)O)cc1	-0.169
Cc1ccc(N2CCN(C(=O)CNS(=O)(=O)c3ccc(Br)s3)CC2C)cc1 (configuration not stated)	0.106
c1ccc(Cn2c(CNc3nc4ccccc4n3CCN3CCOCC3)nc3ccccc32)cc1	-0.591
O=C(Nc1ccc2oc(-c3ccccc3)nc2c1)c1ccco1	-0.345
O=C1CC(c2ccc(S(=O)(=O)N3CCN(c4ccccc4)CC3)cc2)CN1 (configuration not stated)	-0.712
Cc1c(Cl)cccc1NC(=O)CCC(=O)NNC(=O)c1ccccc1Cl	-0.315
O=C(COc1ccccc1)Nc1nccs1	1.35

SMILES	z-score
O=C1C2C3C=CC(CC3)C2C(=O)N1/N=C/c1ccccc1O (configuration not stated)	-0.187
CCCCOc1ccc(S(=O)(=O)NC(=O)NCc2ccc(OCCC)cc2)cc1	-0.658
Nc1nc(-c2ccccc2)c(-c2ccccc2)s1	0.478
COC(=O)c1c(NC(=O)C2CC2)sc2c1CCCC2	-0.0615
COc1ccc(N2CCN(CCCNC(=O)c3cc4sccc4n3C)CC2)cc1	-0.577
Cc1ccn2cc(CCNC(=O)c3ccc(Br)o3)nc2c1	-0.332
COc1ccc(CN=C2NC(=O)CC(C(=O)Nc3cc(C)cc(C)c3)S2)cc1 (configuration not stated)	-0.0924
O=c1c2ccccc2nc(-c2ccc(Cl)cc2)n1C1CCS(=O)(=O)C1 (configuration not stated)	-0.341
Cn1cc(CC(=O)NCCCN2CCCC2=O)c2ccccc21	0.417
CC(NO)/C(=N\O)c1cccs1 (configuration not stated)	-0.105
Cc1oc(C(=O)O)cc1CSCc1cc(C(=O)O)c(C)o1	0.424
COc1ccc(CNC(=O)Cn2cc(C(F)(F)F)ccc2=O)cc1	-0.2
C/C(=N\NC(=O)CNC(=O)c1ccc2c(c1)OCO2)c1ccco1	0.00413
Cc1ccc(C2CC(c3cccs3)=NN2C(=O)CSc2nc3ccccc3o2)cc1 (configuration not stated)	-0.0746
Cc1ccc(Oc2nc(-c3ccccc3)ncc2S(C)(=O)=O)cc1	-0.315
O=C1c2ccccc2CN1CCNS(=O)(=O)c1ccc2ccccc2c1	0.362
CCOC(=O)c1c(CN(C)C)n(-c2ccccc2)c2cc(Br)c(OC)cc12	0.186
c1ccc(Nc2nnc(SCc3cccc4ccccc34)s2)cc1	0.286
COC(=O)CSC1=C(C#N)C(=O)NC(c2ccccc2)S1 (configuration not stated)	-0.603
O=C(Cn1cc[n+](CC(=O)c2ccccc2)c1)c1ccccc1	-0.184
Cc1ccc(/C=C/C(=O)N2CCC(Cc3ccccc3)CC2)cc1	-0.288
Cc1ccc(S(=O)(=O)/N=C/N(C)C)cc1	0.0462
COc1cccc(OCC(=O)Nc2ccc(OC)c(OC)c2)c1	0.535
c1ccc(Nc2nc(N3CCCC3)nc(N3CCCC3)n2)cc1	-0.0932

SMILES	z-score
FC(F)(F)c1nnc(-c2ccccc2)nc1Oc1ccccc1	-0.233
CC(=O)NC(Cc1cccc(C)c1)C(=O)NC1CCN(c2ncccc2[N+](=O)[O-])CC1 (configuration not stated)	-0.444
Cc1cccc(NC(=O)CN(c2ccc(C(C)C)cc2)S(=O)(=O)c2c(C)nn(C)c2C)n1	2.21
CSc1c(SCc2ccccc2)cnn(Cc2ccccc2)c1=O	-0.945
COc1ccc(N2CCN(C(=O)CSc3nnc4c(C)cc5ccccc5n34)CC2)cc1	-0.18
Fc1ccc(NC(=S)Nc2cccc(Cl)c2)cc1	1.26
CCn1cc(/C=N/NC(=O)c2ccc3c(c2)OCO3)cn1	-0.194
O=C(Nc1ccon1)c1cc2c(s1)CCCCCC2	-0.664
O=P(COc1ccccc1)(c1ccccc1)c1ccccc1	-0.356
CCCCCCCCNC(=O)c1cccnc1SCC(=O)Nc1ccccc1OC	-0.724
CCOC(=O)c1c(C(C)(C)C)oc2ccc(O)cc12	-0.177
CC(C)CN(CC(C)C)S(=O)(=O)c1cc([N+](=O)[O-])ccc1N1CCCCCC1	-0.0703
COC(=O)CSc1nnc(NC(=O)/C=C\c2ccc3c(c2)OCO3)s1	0.115
CCCC(=O)Nc1nc2ccc(NC(=O)c3cccnc3)cc2s1	1.81
O=C(Cc1cccs1)N(Cc1cccs1)C1(C(=O)NC2CCCC2)CCCCC1	0.556
Cc1ccc(NC(=O)N(C2CCCCC2)C(C)c2cccnc2)cc1C (configuration not stated)	0.127
CCOC(=O)N1CCN(C(=S)NC(=O)c2ccnn2C)CC1	-0.125
COc1ccc(/C=C/c2nc3sc4c(c3c(=O)o2)CCC4)cc1	active: -3.25
COc1cc(OC)c(C2N(c3ccc(Cl)c(Cl)c3)C(=O)C3CCCN32)cc1OC (configuration not stated)	0.743
COc1ccc(CCC(=O)NCCc2cn3c(C)csc3n2)cc1	-0.294
Cc1ccc(C)c(NC(=S)c2ccc3ccccc3n2)c1	0.103
CCCCn1c2nc3ccccc3nc2c2c(=O)n(CCC)cnc21	-0.275
CCOc1nc(NC(=O)NS(=O)(=O)Oc2ccccc2Cl)nc(-c2ccccc2)n1	-0.308
CN(CC(=O)NCCN1CCCCCC1)S(=O)(=O)c1cccc2nsnc12	0.696
